According to paper PMC4336329 (PLoS ONE, 2015):
The campaign covered roughly 310,000 compounds. About 14,000 (4.5%) showed an effect of 50% or more. The effect is printed as a negative number. The list shows a part of the results.

biological target: human ether-à-go-go-related gene (hERG) potassium channel (human, UniProt Q12809); experiment: primary screen, population patch clamp on CHO cells stably expressing hERG
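Also: peak tail current of the secondary pulse compared with the same well before compound.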

Chain of human ether-à-go-go-related gene (hERG) potassium channel (Q12809 whole entry, looked up): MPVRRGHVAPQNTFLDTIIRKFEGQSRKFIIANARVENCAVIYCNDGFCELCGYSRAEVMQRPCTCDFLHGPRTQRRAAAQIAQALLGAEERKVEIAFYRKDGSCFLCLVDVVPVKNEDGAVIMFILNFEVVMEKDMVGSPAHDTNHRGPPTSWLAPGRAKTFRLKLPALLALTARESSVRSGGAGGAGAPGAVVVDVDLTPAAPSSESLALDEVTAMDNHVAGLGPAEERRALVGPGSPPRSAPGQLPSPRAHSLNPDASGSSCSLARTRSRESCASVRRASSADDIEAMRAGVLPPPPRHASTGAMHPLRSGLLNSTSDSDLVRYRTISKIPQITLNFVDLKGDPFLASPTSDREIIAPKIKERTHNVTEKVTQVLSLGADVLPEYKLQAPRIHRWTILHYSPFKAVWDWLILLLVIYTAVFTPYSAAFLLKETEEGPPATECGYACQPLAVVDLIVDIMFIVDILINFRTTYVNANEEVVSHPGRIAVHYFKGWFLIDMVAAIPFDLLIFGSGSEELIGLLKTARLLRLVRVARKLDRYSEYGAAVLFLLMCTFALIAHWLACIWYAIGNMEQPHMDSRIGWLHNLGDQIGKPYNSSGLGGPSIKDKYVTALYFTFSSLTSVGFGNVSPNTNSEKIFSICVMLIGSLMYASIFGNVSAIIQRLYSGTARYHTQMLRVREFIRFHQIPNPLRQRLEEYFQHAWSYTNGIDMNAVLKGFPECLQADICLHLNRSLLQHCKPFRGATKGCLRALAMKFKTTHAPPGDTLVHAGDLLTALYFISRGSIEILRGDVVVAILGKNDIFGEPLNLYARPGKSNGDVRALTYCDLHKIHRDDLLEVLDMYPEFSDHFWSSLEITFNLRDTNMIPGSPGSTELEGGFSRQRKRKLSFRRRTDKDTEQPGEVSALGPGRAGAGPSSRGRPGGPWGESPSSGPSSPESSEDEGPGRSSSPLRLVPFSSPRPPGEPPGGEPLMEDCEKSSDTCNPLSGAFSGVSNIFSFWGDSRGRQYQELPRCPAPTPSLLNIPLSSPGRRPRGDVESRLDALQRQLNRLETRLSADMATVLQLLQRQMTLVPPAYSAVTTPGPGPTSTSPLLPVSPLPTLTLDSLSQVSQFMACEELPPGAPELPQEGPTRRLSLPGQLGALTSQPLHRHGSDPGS

SMILES	hERG current change (%, negative = inhibition) at 10uM [%]
Cc1ccc2c(c1)[nH]c1c(=O)n(Cc3ccco3)cnc12	-0.956
COc1ccc(S(=O)(=O)Nc2ccncc2)c(C)c1C	14.9
CC(C)(C)CN1C(N)=NC[C@@H]1c1ccccc1	19.1
CCCCCCN=C(CC)c1c(O)n(CCCC)c(=O)[nH]c1=O	-55.4
CCN(CC)CCCNC(=O)c1c(O)c2c([nH]c1=O)CCCC2	-16.9
Cc1cc(C(=O)C[N+]23CCN(CC2)CC3)c(C)n1-c1ccc(Br)cc1.[Cl-]	12.1
COc1cc(CCC(=O)OCC(=O)Nc2c(Cl)cccc2Cl)cc(OC)c1OC	17.2
COc1ccccc1NC(=O)Nc1ccc2c(c1)nnn2C	-0.0409
O=C(NP(=O)(N1CCOCC1)N1CCOCC1)C1=C(N2CCOCC2)/C(=C\c2ccccc2)CC1	18.1
COc1ccc(C)cc1NC(=O)C(=O)c1cn(CC(=O)N2CCCC2)c2ccccc12	11.4
O=C(CCn1c(=O)[nH]c2ccsc2c1=O)NCc1ccc(F)cc1	1.7
O=C(c1ccc(Cl)c(S(=O)(=O)N2CCOCC2)c1)N1CCOCC1	12
S=c1[nH]nc(C2CCCCC2)n1/N=C/c1cccc(Cl)c1Cl	10.3
CSCC(=O)N1CCCC(N2CCN(c3ccc(F)cc3)CC2)C1 (centres unmarked)	-22.9
O=C(NCCCn1ccnc1)c1cc(-c2cccs2)on1	-24.1
COc1ccc(CCNc2oc(COc3ccc(F)cc3)nc2C#N)cc1	2.97
Cc1ccc(NC(=O)Cc2ccc(F)cc2)cc1	7.89
CC(C)C(OC(=O)c1cccs1)C(=O)NCc1ccco1 (centres unmarked)	6.28
CCCS(=O)(=O)NCc1ccc2c(c1)cc(C)n2C	2.27
COC(=O)c1ccccc1NC(=O)NCc1ccccc1	-3.24
O=[N+]([O-])c1ccccc1N/N=C1\CC2CC=CC12 (centres unmarked)	46.5
Cc1csc(NC(=O)CSc2nnc(C)n2Cc2ccco2)n1	-1.85
CN(C)S(=O)(=O)c1ccc(C(=O)NC(=O)CSc2ccccc2)cc1	4.06

SMILES	hERG current change (%, negative = inhibition) at 10uM [%]
CCn1c(C(=O)N2CCC(C(=O)NCc3cccs3)CC2)cc2sccc21	-63
CN(C(=O)c1cccnc1)c1nnc(-c2ccccn2)s1	1.36
COc1ccc(-c2cc(OC)c3c(C)oc(C)c3c(=O)c2)cc1OC	2.75
O=C(NCCC(=O)N1CCN(c2ccccn2)CC1)c1ccc(Br)cc1	-42.5
O=C(COC(=O)CCC(=O)c1ccc(Cl)cc1)NCCc1ccccc1	18.3
CCCNC(=O)NNC(=O)c1ccc(F)cc1	-2.15
O=C(CN1CCN(c2ccc(F)cc2)CC1)Nc1ccc2c(c1)OCCO2	4
COC(=O)C1=C(N)OC2=C(C(=O)CCC2)C1c1cccs1 (centres unmarked)	5.85
CCN(CC)S(=O)(=O)c1ccc(NS(=O)(=O)c2ccc(F)cc2)cc1	5.42
NC(=O)C1CCN(c2cc(N3CCOCC3)ccc2[N+](=O)[O-])CC1	19.5
Cc1cccc(-n2c(O)c(C=Nc3cc(O)ccc3C)c3ccccc3c2=O)n1	21.3
COCCCNC(=O)C(Cc1ccccc1)NS(=O)(=O)c1ccc2c(c1)c(=O)n(C)c(=O)n2C (centres unmarked)	-0.155
C[C@H](NC(N)=O)C(=O)OCC(=O)NCc1cccs1	1.64
O=C1C=C(c2ccc(F)cc2OCc2ccccc2)C[C@@H](c2ccc3c(c2)OCO3)C1	23.8
Cc1cc(NC(=O)CCN2C(=O)C3C4CCC(C4)C3C2=O)cc(C)c1Br (centres unmarked)	-44.9
CCN1C(=O)[C@H]2[C@@H](c3ccc(-c4ccc(F)cc4)c(OC)c3)N[C@@](CC(C)C)(C(=O)OC)[C@H]2C1=O.O=C(O)C(F)(F)F	5.93
COc1ccc(NC(=O)c2ccc(-c3ccc(C(C)=O)cc3)o2)cn1	5.98
Cc1ccc(C(=O)O)cc1NS(=O)(=O)c1ccc2ccccc2c1	12.7
O=C(/C=C/c1ccc(Br)cc1)Nc1ccc(S(=O)(=O)Nc2ncccn2)cc1	32.9
Cc1cc(OCC(=O)N2CCN(c3ccccn3)CC2)c(C)cc1Br	6.09
Cc1ccc(-n2cc(CNCCn3nc(C)cc3C)c(-c3ccc(F)cc3)n2)cc1	-50.8
O=C1NS(=O)c2cc([N+](=O)[O-])cc([N+](=O)[O-])c21 (centres unmarked)	20.8
O=C(CCNc1cccc(C(F)(F)F)c1)c1ccco1	-0.255

SMILES	hERG current change (%, negative = inhibition) at 10uM [%]
C=CCc1ccccc1OCC(=O)NNC(=S)NCc1ccccc1	-0.308
Cc1cc(C)c2nc(SCC(=O)NCC3CCCO3)c(C#N)cc2c1 (centres unmarked)	7.18
COC(=O)CSC1=NS(=O)(=O)c2ccccc21	6.01
Cn1c(=O)c2c(nc(NCc3cccnc3)n2Cc2ccccc2Cl)n(C)c1=O	-4.86
Cc1ccc(OCCOc2cccc(C=C3C(=O)NC(=O)NC3=O)c2)c(C)c1	7.36
COC(=O)c1c(C)n(Cc2ccco2)c2ccc(O)cc12	-11.6
Cc1occc1C(=O)Nc1ccc2c(c1)OCO2	-7.71
COc1cc(OC)c(C(=O)OC(C)C(=O)Nc2cc(C(F)(F)F)ccc2Cl)cc1OC (centres unmarked)	-2.43
Cc1cc2occ(CC(=O)N(C)CC(=O)Nc3c(C)cccc3C)c2cc1C	9.34
CCc1cc(C(=O)N2CCN(c3ccccn3)CC2)sc1C	-3.12
COc1ccc(C(=O)NC2CC2)cc1OC1CCN(Cc2ccccc2F)CC1	-78
C/C(=N/NS(=O)(=O)c1cc(C)ccc1C)c1c[nH]c2ccccc12	14.2
O=C(Nc1cc(Cl)ccc1O)c1cc(-c2ccco2)on1	8.36
O=C(Nc1ccc2c(c1)OCO2)c1cc(-c2ccc(O)cc2)on1	22.4
COc1cccc2oc3cc(C#Cc4ccccn4)ccc3c(=O)c12	-13.1
CCOC(=O)c1nnc(-c2cccs2)nc1Oc1ccc(Cl)cc1	7.09
CC1CCC(CN2CCN=C2Nc2ccccc2)CC1 (centres unmarked)	-14.7
CCCCC(CCC(=O)Nc1ccccc1C(=O)OCC)C(=O)O (centres unmarked)	-3.09
COCCN(CCOC)S(=O)(=O)c1ccc(C(=O)Nc2nnc(C)o2)cc1	7.79
COc1ccccc1C(=O)N1CCN(C(=O)c2ccncc2)CC1	-2.76
CN1CCN(C(=O)c2ccc3c(Cl)c4c(nc3c2)CCCC4)CC1	-9.43
Cc1cccc(/C=N/NC(=O)c2c(-c3ccccc3)noc2C)c1O	7.29
Cc1ccc(C)c(N=Cc2c(O)c3ccccc3oc2=O)c1	16.3

SMILES	hERG current change (%, negative = inhibition) at 10uM [%]
C/C(=N/NC(=O)c1ccc(NC(=O)c2ccc(F)cc2)cc1)c1ccccc1	-2.67
Cc1cccc(NC(=O)CSc2c3c(nc4ccccc24)CCC3)n1	-15.4
CCOC(=O)C1CCN(CC(=O)Nc2cc(S(=O)(=O)N3CCOCC3)ccc2C)CC1.O=C(O)C(=O)O	-8.57
Cc1ccc(C(=O)N[C@H](C(=O)N2CCN(c3ccccc3F)CC2)C(C)C)cc1	-8.57
CCOc1cc(N2CCOCC2)c(OCC)cc1NC(=O)C(C)(C)C	17.4
Cc1ccc(S(=O)(=O)CCc2nnc(NC(=O)c3ccccn3)s2)cc1	-1.45
Cc1nc(NC(=O)c2ccccc2)sc1C	7.28
CCOc1ccccc1C(=O)NC(C(=O)NCc1ccccc1OC)C(C)C (centres unmarked)	-35.3
O=c1/c(=C/c2ccco2)sc2nc(-c3ccccc3Br)nn12	12.7
O=C(c1ccco1)N1CCN(S(=O)(=O)c2cccc([N+](=O)[O-])c2)CC1	-20.7
CC1CCN(C(=O)c2[nH]cnc2C(=O)NCCCCCNC(=O)OC(C)(C)C)CC1	10.6
CCN(Cc1ccc2c(c1)OCCO2)S(=O)(=O)c1ccc(NC(C)=O)cc1	-10.8
O=C(Nc1cccnc1)c1coc(=O)c2ccccc12	6.62
Cc1c(CC(=O)NCCCCCC(=O)O)c(=O)oc2cc3c(cc12)CCC(C)(C)O3	9.83
O=C(Nc1ccc2oc(-c3ccccc3)nc2c1)c1cccnc1	-8.37
Cc1ccc(S(=O)(=O)NCCC(=O)OCC(=O)Nc2cccc(Cl)c2)cc1	-27.5
Cl.Fc1ccc(COc2ccccc2CNCc2ccncc2)cc1	-32.6
CC1=Nc2ccccc2N=C(NC(=O)c2ccccc2)C1c1ccc(Cl)cc1 (centres unmarked)	12.7
NC(=O)c1cc(S(=O)(=O)Nc2ccc(OC(F)(F)F)cc2)cs1	14.3
CCCC(C(=O)Nc1ccncc1)c1ccccc1 (centres unmarked)	14.8
